Measured values published in the supplement of paper PMC10126150.
Values marked as one replicate rest on one cluster of the flow cell; about a third of the high ones do not repeat.

test system: ATP; experiment: switch fluorescence ratio, 500 uM ATP over buffer (Cy3 cluster intensity, sum of 5 cycles each) (fold (ratio)); higher = stronger signal-on switching upon ATP binding; sequences stand for … in TCGTCGGCAGCGTCAGATGTGTATAAGAGACAGTTTTTTTTTTTTTTTTTTTTTTTTT…TC; conditions: aptamer strand: ATP DNA aptamer (quencher-CACCTGGGGGAGTATTGCGGAGGAAGG + anchor), 100 nM annealed; ATP concentration: 500 uM; one replicate
In short: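 Between each of five buffer/ATP cycles, the flow-cell was stripped with NaOH and re-annealed. Each cycle imaged Cy3-labelled switching-strand clusters, annealed to 100 nM quencher-labelled ATP aptamer on a modified Illumina MiSeq flow-cell, first in selection buffer and then after 15 min with 500 uM ATP at 22 °C. The fluorescence ratio is summed target-cycle over summed buffer-cycle Cy3 intensity per cluster, averaged per switch-domain sequence, with clusters outside 100-1000 RFU excluded.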
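Note: ATP exposure 15 min at 22 °C before imaging.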

Sequence	switch fluorescence ratio
TAAAATGGAT	0.979
TAAACAAGGT	1.61
TAAACCAGAC	2.13
TAAACGCACT	1.65
TAAACGTCAT	1.1
TAAACGTTCT	1.11
TAAACTTAGG	0.991
TAAAGAACTT	1.1
TAAAGACACT	1.04
TAAAGACCGC	0.997
TAAAGAGCCT	1.06
TAAAGAGTAA	0.987
TAAAGATGTG	0.975
TAAAGCTG	1.03
TAAAGGCCCG	1.03
TAAAGGGCTA	1
TAAATAGATA	0.974
TAAATAGTTC	1.03
TAAATCGGAC	1.09
TAAATCGGTC	1.02
TAAATGCGTG	1.01
TAAATTCCAG	1.03
TAAATTCTA	0.972
TAAATTTGTT	1.01
TAACAAGTGC	0.98

Sequence	switch fluorescence ratio
TAACACCTCC	1.36
TAACACGCGC	1.04
TAACACTTT	0.994
TAACAGATT	0.991
TAACAGCGGG	1
TAACAGGGGA	1.05
TAACATACGA	1.25
TAACATAGGT	0.998
TAACATCCAT	1.02
TAACATGAAC	1.09
TAACATTCAC	1.18
TAACCAGTCG	1.02
TAACCATAAT	0.979
TAACCCTCGG	1.01
TAACCCTCT	1.01
TAACCGCGG	0.951
TAACCGGACC	1.75
TAACCGGCGT	1.04
TAACCGGGGT	0.983
TAACCGTCTG	1.02
TAACCGTTGC	1.35
TAACCTGGTG	1.69
TAACCTGTTA	0.993
TAACGATGTG	1.01
TAACGCGGGG	1.04

Sequence	switch fluorescence ratio
TAACGGCTCG	1.03
TAACGGTT	1.01
TAACTAGGGA	0.979
TAACTCTC	0.993
TAACTCTTCC	2.97
TAACTGGAAT	0.98
TAACTTGAGA	0.963
TAACTTGTAA	1.01
TAACTTTCGG	1.02
TAAGAAAACC	1.61
TAAGAAAGGC	0.98
TAAGAATGTA	1.03
TAAGACAGAA	1.05
TAAGACCACC	1.24
TAAGACCTG	1.02
TAAGACTAAT	0.995
TAAGAGGTAT	1.02
TAAGAGTGAA	1.03
TAAGATTACG	1.02
TAAGATTATG	1.01
TAAGCATGCT	0.954
TAAGCGAAAT	0.99
TAAGCGACAA	1.05
TAAGCGTTAT	1
TAAGCTAACA	1.03

Sequence	switch fluorescence ratio
TAAGCTAAGA	0.998
TAAGCTCATT	1.01
TAAGGACAGC	1.01
TAAGGAGATG	0.994
TAAGGAGTCT	0.932
TAAGGATGTG	1.01
TAAGGCCGG	1.01
TAAGGGACTT	0.997
TAAGGGATTT	0.985
TAAGGGTATC	1.11
TAAGGGTATT	0.973
TAAGGGTT	1
TAAGGTCAC	1
TAAGGTGTGT	1.11
TAAGTAACTG	0.995
TAAGTAGATG	1.01
TAAGTATTTC	1.03
TAAGTCCGGC	0.946
TAAGTCGTAC	1.03
TAAGTCTAAA	1
TAAGTGATTT	0.991
TAAGTGCAAA	0.956
TAAGTGCCCG	0.959
TAAGTGTCAG	0.959
TAATAAACAC	1.08
